Experimental data published in patent US12325690B2, “Compounds for the reducing lipotoxic damage” (Mayo Foundation for Medical Education and Research, priority 2017, dated 2025).
One block for each compound: values may come before it.

Experiments:
[1] = molecular target: T1, recombinant human pancreatic tri-acyl glycerol lipase [PNLIP; hPTL] (Homo sapiens, UniProt P16233); assay: FFA generation from glyceryl trilinoleate by recombinant hPNLIP with colipase; format: biochemical; conditions: for IC50: solution stored overnight, with colipase, read-out: IC50 against hPNLIP when stored overnight
T1 sequence (P16233 17-465): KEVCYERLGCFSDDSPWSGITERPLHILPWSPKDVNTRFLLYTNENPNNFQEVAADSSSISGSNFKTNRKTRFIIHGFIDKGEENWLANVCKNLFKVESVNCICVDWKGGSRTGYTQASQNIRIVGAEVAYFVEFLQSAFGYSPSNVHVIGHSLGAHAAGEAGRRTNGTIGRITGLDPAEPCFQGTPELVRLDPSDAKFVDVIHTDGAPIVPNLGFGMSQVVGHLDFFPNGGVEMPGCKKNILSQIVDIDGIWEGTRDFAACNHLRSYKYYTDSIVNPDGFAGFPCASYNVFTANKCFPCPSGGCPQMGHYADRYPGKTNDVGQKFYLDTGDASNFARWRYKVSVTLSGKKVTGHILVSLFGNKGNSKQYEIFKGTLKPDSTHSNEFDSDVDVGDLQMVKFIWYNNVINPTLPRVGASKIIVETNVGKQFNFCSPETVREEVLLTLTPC
T1 sequence (P04118 23-112 partner): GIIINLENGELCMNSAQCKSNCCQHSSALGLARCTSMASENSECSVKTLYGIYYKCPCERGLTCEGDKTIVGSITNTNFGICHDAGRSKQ
Protocol: The efficacy of a selection of the prepared analogs was explored to determine their ability to inhibit free fatty acid (FFA) generation from recombinant human lipases while retaining stability. To test these features, the analogs were dissolved in ethanol (200 mM stock) and further diluted to a 600 micromolar (0.3% ethanol) working stock in PBS. The agents were incubated with the recombinant enzymes in serial ⅓ dilutions spanning a range of 200 to 0.3 micromolar for 30 minutes, and then added to the substrate 1 mM glyceryl trilinoleate (GTL) in PBS, pH 7.4 along with cofactor colipase (CLPS; 0.5 mcg/ml).

[2] = test system: Mouse pancreatic acinar cells; assay: Toxicity study in pancreatic acinar cells (ATP levels, LDH leakage); format: cell-based; conditions: 4 hours, 20-200 micromolar range
Protocol: Toxicity studies of the relevant compounds were also performed using by diluting the original ethanol stock 200 mM into the incubation medium for acinar cells (HEPES buffer, pH 7.4, as described by Navina et al) 600 micromolar stock solutions of the compounds in 0.3% ethanol in PBS. These were added to acinar cells at ⅓ dilutions starting at 200 micromolar. Mouse pancreatic acinar ATP levels and LDH leakage were measured over 4 hours and compared to control. Any number positive over control indicates % injury greater than control acini.

[3] = test system: pancreatic lysate lipase; assay: Lipase activity assay with pancreatic lysate (commercial Pointe scientific lipase assay); format: biochemical, mouse; conditions: freshly prepared solutions; compared with parent 741
Protocol: (§1) To test the efficacy of these compounds, the agents were dissolved as a 20 mM stock in ethanol, and further diluted to in PBS as a 600 micromolar working stock (3.3% ethanol). This was either used immediately or left at room temperature for 16-20 hours overnight before retesting efficacy. The agents were incubated with a pancreatic lysate in serial ⅓ dilutions spanning a range of 200 to 0.3 micromolars for 30 minutes. 5 microliters of these mixtures were then used to measure lipase activity using a commercial lipase assay (Pointe scientific) containing a monoacyl glycerol lipase in the reagent. The lipase assay was done using reagents in proportion to the recommended protocol. Values were depicted as % maximal lipase activity of the well without any inhibitor.

[4] = molecular target: T2, pancreatic lysate lipase (Mus musculus, UniProt Q6P8U6); assay: as above; format: biochemical; conditions: fresh solution
T2 construct: efficacy against mouse pancreatic lysates; other: summary of strengths of 767; efficacy as a solution when left overnight; other: solution left overnight; efficacy in the lipase activity assay compared with orlistat when fresh; other: fresh solution; IC50 of orlistat after overnight incubation (nearest tested concentration); other: after overnight incubation; improvement in stability and e
T2 sequence (Q6P8U6 17-465): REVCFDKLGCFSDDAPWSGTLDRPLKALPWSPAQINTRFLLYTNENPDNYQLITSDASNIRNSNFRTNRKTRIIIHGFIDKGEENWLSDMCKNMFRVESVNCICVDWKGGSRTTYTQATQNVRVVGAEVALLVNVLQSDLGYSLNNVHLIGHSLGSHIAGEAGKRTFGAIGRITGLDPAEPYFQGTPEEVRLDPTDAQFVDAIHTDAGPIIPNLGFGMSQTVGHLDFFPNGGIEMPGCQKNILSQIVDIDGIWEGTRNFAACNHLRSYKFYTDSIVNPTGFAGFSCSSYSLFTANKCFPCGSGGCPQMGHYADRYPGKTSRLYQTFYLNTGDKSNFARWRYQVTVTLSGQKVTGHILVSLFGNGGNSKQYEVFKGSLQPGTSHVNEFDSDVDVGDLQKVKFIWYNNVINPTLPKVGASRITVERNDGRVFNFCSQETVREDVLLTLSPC
Protocol: as §1

IC50 [1]: < 2000 nM
SMILES: CCCCCCCCCCC[C@@H](C[C@@H]1OC(=O)[C@H]1CCCCCC)OC(=O)[C@H](CNC=O)NC=O [Compound 733]

IC50 [1]: < 2000 nM
SMILES: CCCCCCCCCCC[C@@H](C[C@@H]1OC(=O)[C@H]1CCCCCC)OC(=O)C(CCCNC=O)NC=O (stereo partly shown) [Compound 734]

stability in aqueous solution ([1]; retention of inhibition after overnight storage): best stability
IC50 [1]: < 2000 nM
SMILES: CCCCCCCCCCC[C@@H](C[C@@H]1OC(=O)[C@H]1CCCCCC)OC(=O)[C@H](CCCNC(=N)N)NC=O [Compound 740]

IC50 [1]: < 2000 nM
SMILES: CCCCCCCCCCC[C@@H](C[C@@H]1OC(=O)[C@H]1CCCCCC)OC(=O)[C@H](CC(=O)O)NC=O [Compound 743]
acinar ATP levels [2]: drop in ATP
toxicity to acinar cells [2]: toxic to acinar cells

lipase inhibition efficacy of β-chain analogs of 741 [3]: decrease in efficacy
SMILES: CCCCCC[C@@H]1C(=O)OC1CC(CC/C=C/COCCCC)OC(=O)[C@H](C)NC=O (stereo partly shown) [Compound 762]

lipase inhibition efficacy of β-chain analogs of 741 [3]: decrease in efficacy
SMILES: CCC/C=C/C/C=C/CCC(CC1OC(=O)[C@H]1CCCCCC)OC(=O)[C@H](C)NC=O (stereo partly shown) [Compound 763]

efficacy in the lipase activity assay compared with orlistat when fresh [4]: equivalent efficacy
SMILES: CCCCCCCCCCC[C@@H](C[C@@H]1OC(=O)[C@H]1COCCCC)OC(=O)[C@H](C)NC=O [Compound 768]
